{"source": "paper PMC6899017", "binders": {"B1": {"name": "Vac8–H3–HA (endogenously expressed H3–HA-tagged Vac8) (protein, UniProt P39968 1-578)", "chain": "MGSCCSCLKDSSDEASVSPIADNEREAVTLLLGYLEDKDQLDFYSGGPLKALTTLVYSDNLNLQRSAALAFAEITEKYVRQVSREVLEPILILLQSQDPQIQVAACAALGNLAVNNENKLLIVEMGGLEPLINQMMGDNVEVQCNAVGCITNLATRDDNKHKIATSGALIPLTKLAKSKHIRVQRNATGALLNMTHSEENRKELVNAGAVPVLVSLLSSTDPDVQYYCTTALSNIAVDEANRKKLAQTEPRLVSKLVSLMDSPSSRVKCQATLALRNLASDTSYQLEIVRAGGLPHLVKLIQSDSIPLVLASVACIRNISIHPLNEGLIVDAGFLKPLVRLLDYKDSEEIQCHAVSTLRNLAASSEKNRKEFFESGAVEKCKELALDSPVSVQSEISACFAILALADVSKLDLLEANILDALIPMTFSQNQEVSGNAAAALANLCSRVNNYTKIIEAWDRPNEGIRGFLIRFLKSDYATFEHIALWTILQLLESHNDKVEDLVKNDDDIINGVRKMADVTFERLQRSGIDVKNPGSNNNPSSNDNNSNNNDTGSEHQPVEDASLELYNITQQILQFLH"}, "B2": {"name": "Vac8ΔN–GFP (Vac8^19-578-GFP) (domain or fragment, UniProt P39968 19-578)", "chain": "PIADNEREAVTLLLGYLEDKDQLDFYSGGPLKALTTLVYSDNLNLQRSAALAFAEITEKYVRQVSREVLEPILILLQSQDPQIQVAACAALGNLAVNNENKLLIVEMGGLEPLINQMMGDNVEVQCNAVGCITNLATRDDNKHKIATSGALIPLTKLAKSKHIRVQRNATGALLNMTHSEENRKELVNAGAVPVLVSLLSSTDPDVQYYCTTALSNIAVDEANRKKLAQTEPRLVSKLVSLMDSPSSRVKCQATLALRNLASDTSYQLEIVRAGGLPHLVKLIQSDSIPLVLASVACIRNISIHPLNEGLIVDAGFLKPLVRLLDYKDSEEIQCHAVSTLRNLAASSEKNRKEFFESGAVEKCKELALDSPVSVQSEISACFAILALADVSKLDLLEANILDALIPMTFSQNQEVSGNAAAALANLCSRVNNYTKIIEAWDRPNEGIRGFLIRFLKSDYATFEHIALWTILQLLESHNDKVEDLVKNDDDIINGVRKMADVTFERLQRSGIDVKNPGSNNNPSSNDNNSNNNDTGSEHQPVEDASLELYNITQQILQFLH"}, "B3": {"name": "t-Atg13C–BFP [Atg19(152-191)-Atg13(567-738)-mTagBFP2] (protein, UniProt P35193 152-191; Q06628 567-738)", "chain": "NVVVSRECLDNFMKQLLKLEESLNKLELEQKVTNKEPNHRGGNSSTSALNSRRNSLDKSSNKQGMSGLPPIFGGESTSYHHDNKIQKYNQLGVEEDDDDENDRLLNQMGNSATKFKSSISPRSIDSISSSFIKSRIPIRQPYHYSQPTTAPFQAQAKFHKPANKLIDNGNRSNSNNNNHNGNDAVGVMHNDEDDQDDDLVFFMSDMNLSKEG"}}, "key": {"[1]": {"molecular_target": "T1, Myc–HKMT-tagged Atg13 (S. cerevisiae) (UniProt Q06628)", "T1 sequence": "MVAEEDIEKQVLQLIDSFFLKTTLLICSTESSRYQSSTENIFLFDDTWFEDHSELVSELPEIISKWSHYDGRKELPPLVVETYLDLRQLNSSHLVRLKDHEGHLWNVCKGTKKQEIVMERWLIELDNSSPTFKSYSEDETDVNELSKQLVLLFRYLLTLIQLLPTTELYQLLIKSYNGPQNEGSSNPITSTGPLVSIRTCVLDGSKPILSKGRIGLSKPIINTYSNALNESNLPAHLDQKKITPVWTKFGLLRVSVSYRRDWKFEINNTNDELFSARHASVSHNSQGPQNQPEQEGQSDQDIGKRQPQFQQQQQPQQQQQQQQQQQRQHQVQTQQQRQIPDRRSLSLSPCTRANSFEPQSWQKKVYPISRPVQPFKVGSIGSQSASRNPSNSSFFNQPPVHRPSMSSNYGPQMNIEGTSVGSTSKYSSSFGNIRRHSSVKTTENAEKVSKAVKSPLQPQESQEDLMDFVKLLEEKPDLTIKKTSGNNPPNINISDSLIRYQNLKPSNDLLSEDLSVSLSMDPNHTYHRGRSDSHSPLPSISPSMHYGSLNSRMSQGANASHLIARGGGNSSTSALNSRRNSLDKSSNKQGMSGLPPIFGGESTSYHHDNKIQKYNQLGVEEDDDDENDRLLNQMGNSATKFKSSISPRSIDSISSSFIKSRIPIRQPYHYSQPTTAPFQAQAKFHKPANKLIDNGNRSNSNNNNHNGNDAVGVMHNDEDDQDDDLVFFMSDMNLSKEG", "assay": "M-track (methylation tracking) in vivo protein proximity assay; in yeast cells; bait fused to Myc–HKMT (plasmid), prey Vac8–H3–HA (endogenous); 4 h 220 nM rapamycin; TCA extracts, anti-me3K9H3 western blot; Nvj1 tested in atg13Δ cells"}, "[2]": {"molecular_target": "T2, Myc–HKMT-tagged Atg13ΔC (Atg13^1-520) (S. cerevisiae) (UniProt Q06628)", "T2 sequence": "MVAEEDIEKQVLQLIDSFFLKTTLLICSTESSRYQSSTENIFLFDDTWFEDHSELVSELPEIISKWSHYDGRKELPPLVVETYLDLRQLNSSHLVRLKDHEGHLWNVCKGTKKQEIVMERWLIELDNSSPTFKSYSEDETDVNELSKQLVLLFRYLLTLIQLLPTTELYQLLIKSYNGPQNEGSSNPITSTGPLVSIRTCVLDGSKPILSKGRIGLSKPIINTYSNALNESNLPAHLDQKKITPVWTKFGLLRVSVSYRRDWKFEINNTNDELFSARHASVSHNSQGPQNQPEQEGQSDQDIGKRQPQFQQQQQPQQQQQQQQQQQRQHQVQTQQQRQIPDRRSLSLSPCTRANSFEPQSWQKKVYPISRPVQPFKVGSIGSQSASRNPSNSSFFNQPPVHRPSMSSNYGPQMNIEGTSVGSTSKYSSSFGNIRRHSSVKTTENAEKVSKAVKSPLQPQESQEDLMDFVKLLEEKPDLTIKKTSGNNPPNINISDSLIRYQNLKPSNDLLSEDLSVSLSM", "assay": "M-track (methylation tracking) in vivo protein proximity assay; in yeast cells; bait fused to Myc–HKMT (plasmid), prey Vac8–H3–HA (endogenous); 4 h 220 nM rapamycin; TCA extracts, anti-me3K9H3 western blot; Nvj1 tested in atg13Δ cells"}, "[3]": {"molecular_target": "T3, Myc–HKMT-tagged Nvj1 (S. cerevisiae) (UniProt P38881)", "T3 sequence": "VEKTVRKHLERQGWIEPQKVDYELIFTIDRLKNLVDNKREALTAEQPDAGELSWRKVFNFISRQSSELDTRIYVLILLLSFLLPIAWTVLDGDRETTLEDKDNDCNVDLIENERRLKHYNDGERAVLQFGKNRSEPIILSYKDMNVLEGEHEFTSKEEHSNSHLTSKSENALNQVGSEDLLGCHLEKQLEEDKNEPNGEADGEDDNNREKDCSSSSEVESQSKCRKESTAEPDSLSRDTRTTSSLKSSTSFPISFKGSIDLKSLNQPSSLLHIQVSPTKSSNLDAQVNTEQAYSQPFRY", "assay": "M-track (methylation tracking) in vivo protein proximity assay; in yeast cells; bait fused to Myc–HKMT (plasmid), prey Vac8–H3–HA (endogenous); 4 h 220 nM rapamycin; TCA extracts, anti-me3K9H3 western blot; Nvj1 tested in atg13Δ cells"}, "[4]": {"molecular_target": "T4, t-Atg13C–BFP [Atg19(152-191)-Atg13(567-738)-mTagBFP2] (S. cerevisiae) (UniProt P35193+Q06628)", "T4 sequence": "B3 chain", "assay": "ectopic recruitment to Ape1-tethered t-Atg13C–BFP (live-cell fluorescence microscopy); Vph1–mCherry atg13Δatg19Δvac8Δ cells; t-Atg13C–BFP clustered on Ape1 oligomers; Vac8–GFP or Vac8ΔN–GFP signal read against BFP puncta and vacuoles; 1 h starvation in SD-N"}, "Vac8–GFP (S. cerevisiae)": {"molecular_target": "T5, Vac8–GFP (S. cerevisiae) (UniProt P39968)", "T5 sequence": "B1 chain", "assay": "ectopic recruitment to Ape1-tethered t-Atg13C–BFP (live-cell fluorescence microscopy); Vph1–mCherry atg13Δatg19Δvac8Δ cells; t-Atg13C–BFP clustered on Ape1 oligomers; Vac8–GFP or Vac8ΔN–GFP signal read against BFP puncta and vacuoles; 1 h starvation in SD-N"}}, "note": "These are yes or no findings as the source states them, for the method shown. For some assays here: Binding seen in cells or lysates may run through a third protein. Some entries that bind do so weakly or less than the wild type. Sequences can lack the tags named with a protein."}
{"binder": "B1", "values": [{"measurement": "binding", "setting": "[1]", "result": "binds"}, {"measurement": "binding", "setting": "[2]", "result": "no binding"}, {"measurement": "binding", "setting": "[3]", "result": "binds"}]}
{"binder": "B2", "values": [{"measurement": "binding", "setting": "[4]", "result": "binds"}]}
{"binder": "B3", "values": [{"measurement": "binding", "setting": "Vac8–GFP (S. cerevisiae)", "result": "binds"}]}
